Measurements: PMC4336329 (PLoS ONE, 2015)
The whole screen tested about 310,000 compounds, of which about 14,000 (4.5%) showed an effect of 50% or more. Effects have a minus sign here. Some of the results follow.

Each molecule was assayed against human ether-à-go-go-related gene (hERG) potassium channel (human, UniProt Q12809) (assay: primary screen, population patch clamp on CHO cells stably expressing hERG).
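Also: peak tail current of the secondary pulse compared with the same well before compound.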

Sequence of human ether-à-go-go-related gene (hERG) potassium channel (Q12809 whole entry, looked up): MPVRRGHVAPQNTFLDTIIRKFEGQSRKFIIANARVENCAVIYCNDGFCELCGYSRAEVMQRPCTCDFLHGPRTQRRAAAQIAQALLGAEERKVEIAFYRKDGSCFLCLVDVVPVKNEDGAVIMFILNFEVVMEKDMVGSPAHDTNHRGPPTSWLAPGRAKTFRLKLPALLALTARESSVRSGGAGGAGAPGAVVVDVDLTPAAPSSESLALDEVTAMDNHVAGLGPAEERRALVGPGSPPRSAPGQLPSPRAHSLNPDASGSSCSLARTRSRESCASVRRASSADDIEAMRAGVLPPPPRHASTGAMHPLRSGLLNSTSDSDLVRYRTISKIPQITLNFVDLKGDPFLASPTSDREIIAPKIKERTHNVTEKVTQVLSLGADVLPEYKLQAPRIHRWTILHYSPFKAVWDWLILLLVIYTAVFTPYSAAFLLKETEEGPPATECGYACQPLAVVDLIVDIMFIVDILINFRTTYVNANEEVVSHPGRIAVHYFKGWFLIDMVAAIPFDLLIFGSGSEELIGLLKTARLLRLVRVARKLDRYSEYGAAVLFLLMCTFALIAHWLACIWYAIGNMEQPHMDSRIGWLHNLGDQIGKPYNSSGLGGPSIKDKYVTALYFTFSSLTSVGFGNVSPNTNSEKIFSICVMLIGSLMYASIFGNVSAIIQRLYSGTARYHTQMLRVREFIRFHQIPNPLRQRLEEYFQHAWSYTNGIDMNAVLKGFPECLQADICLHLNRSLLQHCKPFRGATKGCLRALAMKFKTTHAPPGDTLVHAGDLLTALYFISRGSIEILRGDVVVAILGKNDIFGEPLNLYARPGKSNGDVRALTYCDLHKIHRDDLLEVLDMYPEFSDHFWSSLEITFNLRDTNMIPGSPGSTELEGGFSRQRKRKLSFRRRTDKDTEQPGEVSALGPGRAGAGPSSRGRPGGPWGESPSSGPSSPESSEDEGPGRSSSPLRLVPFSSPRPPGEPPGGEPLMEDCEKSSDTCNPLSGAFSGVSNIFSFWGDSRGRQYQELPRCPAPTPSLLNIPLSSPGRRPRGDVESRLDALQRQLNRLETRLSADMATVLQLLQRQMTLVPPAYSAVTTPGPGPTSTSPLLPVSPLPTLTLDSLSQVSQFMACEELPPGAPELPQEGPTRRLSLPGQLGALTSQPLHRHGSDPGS

Row | SMILES | hERG current change (%, negative = inhibition) at 10uM [%]
1 | COc1ccc(CC(NC(C)=O)C(=O)NC2CCN(C(=O)C3CCCCC3)CC2)c(OC)c1 (centres unmarked) | 22.9
2 | S=C1CSc2ccccc2N1 | 0.736
3 | CCCCn1c(O)c(/C=N/NC(=O)c2ccncc2)c(=O)[nH]c1=O | 18.1
4 | COC(=O)c1[nH]c(C)c(/C(O)=C2\C(=O)C(=O)N(CCN3CCOCC3)C2c2ccccc2OC)c1C (centres unmarked) | 12.8
5 | COc1ccc(N(C(=O)C(C)C)S(=O)(=O)c2ccc3c(c2)n(C)c(=O)n3C)cc1 | -7.63
6 | CN(C(=O)c1ccncc1)C1CC(C)(C)N(O)C(C)(C)C1 | 2.32
7 | C=CCNC(=O)c1ccc(Cl)cc1Cl | 11.8
8 | COC(=O)[C@H]1[C@H]2C[C@@H]3c4[nH]c5cc(OC)ccc5c4CCN3C[C@H]2C[C@@H](OC(=O)c2ccc(N)cc2)[C@@H]1OC | -41.2
9 | CCn1c(CNC(=O)c2ccccc2)nc2ccccc21 | -1.43
10 | COc1ccc(Nc2nc(Cl)nc(N3CCN(c4ccc(OC)cc4)CC3)n2)cc1 | 21.4
11 | C1=C(CCNCC2CC2)CCCC1.Cl | 1.5
12 | Cc1ccc(S(=O)(=O)CCc2nnc(NC(=O)c3cccs3)s2)cc1 | -20.6
13 | CCc1ccc(C(O)(CNCc2ccccc2)c2ccccc2)cc1 (centres unmarked) | -41.6
14 | Cc1c(NC(=O)CSc2ccc(Cl)cc2)cccc1-c1nc2ncccc2o1 | -14.1
15 | CNS(=O)(=O)c1ccc(NC(=O)c2csc(C)c2)cc1 | -9.46
16 | COC(=O)CCCCC(=O)C1C(=O)CC(C)(C)C(C(=O)OC)C1=O (centres unmarked) | 3.34
17 | O=C(O)c1ccc(F)c(S(=O)(=O)Nc2ccccc2)c1 | 11.8
18 | COc1cc(OC)c(/C=N/NC(=O)c2ccncc2)cc1Br | 11.5
19 | COc1cccc(-c2nc(-c3ccccc3)no2)c1 | 1.72

Row | SMILES | hERG current change (%, negative = inhibition) at 10uM [%]
20 | CCOc1ccccc1CN(CCc1ccc2c(c1)OCO2)Cc1ccccn1 | -64.4
21 | CCC(C)Nc1nc(Cl)nc(NCCOc2ccccc2)n1 (centres unmarked) | -1.39
22 | Cc1cc(C(=O)OCC(=O)Nc2ccccc2C)c(C)o1 | 4.98
23 | O=C(c1cc(-c2cccc(O)c2)on1)N1CCOCC1 | 20.5
24 | CN(C(=O)/C=C/c1ccccc1)C1CCCCC1 | 1.32
25 | CCN(C(=O)c1ccc(=O)[nH]c1)c1c(N)n(Cc2ccccc2)c(=O)[nH]c1=O | -8.25
26 | COc1ccc(N2C(=O)C(CN3CCN(C)CC3)C2c2ccccc2)cc1 (centres unmarked) | -16
27 | CCOC(=O)C1CCCN(CCCc2ccccc2)C1.Cl (centres unmarked) | -46.3
28 | CC1CCCC(C)N1/N=C/c1ccc(O)c(O)c1 (centres unmarked) | 1.18
29 | O=C(Cn1nc(-c2ccc(Cl)cc2)ccc1=O)NCCN1CCOCC1 | -19.2
30 | O=C(c1cccs1)N1CCN(CCc2ccccc2)CC1 | -48.6
31 | Cc1ccccc1NC(=O)Cn1c(NCC(C)O)nc2ccccc21 (centres unmarked) | -2.11
32 | Cc1cc(/C=C2\C(=O)NC(=O)N(C)C2=O)c(C)n1-c1ccc2c(c1)OCO2 | 14.7
33 | CC1CCCN(S(=O)(=O)c2ccc(Cl)s2)C1 (centres unmarked) | -1.51
34 | Cc1ncc([N+](=O)[O-])n1CC(=O)Nc1ccccc1 | 18.5
35 | CCOC(=O)c1cnc(-n2nc(C)cc2C)nc1Nc1ccc(OC)cc1 | -10.6
36 | Cc1ccc(CN2CC(C(=O)Nc3ncccc3C)CC2=O)cc1 (centres unmarked) | -14
37 | O=C(COc1ncnc2sccc12)N1CCN(C(=O)c2ccco2)CC1 | 1.86
38 | Cc1ccc(C)c(NC2=NCC(=O)N2c2ccc3c(c2)OCCO3)c1 | -8.96

Row | SMILES | hERG current change (%, negative = inhibition) at 10uM [%]
39 | COc1ccc(Cn2c(CCC(=O)NCCC(C)C)nc3ncccc3c2=O)cc1 | -43.1
40 | O=C(NCC1CC1)c1cc(-c2ccccc2)nn1CC1CC(c2cccc([N+](=O)[O-])c2)=NO1 (centres unmarked) | -60.8
41 | c1coc(CNc2nc(-c3ccncc3)cs2)c1 | -3.17
42 | CC(C)(C)NC(=O)C1N(c2cccnc2)C(=O)C2C(C(=O)Nc3ccccc3F)C3(C)C=CC21O3 (centres unmarked) | -11.6
43 | O=[N+]([O-])c1nn(-c2ccc(Cl)cc2)n(O)c1=NCc1ccccc1Cl | -8.2
44 | O=C(Cn1cc(C(F)(F)F)cc(Cl)c1=O)Nc1cc(Cl)cc(Cl)c1 | 5.67
45 | Cc1ccc(C(=O)C(C)OC(=O)c2cc(=O)[nH]c3ccccc23)cc1 (centres unmarked) | 18.5
46 | COc1ccc(-n2nnnc2SCC(=O)N2C(C)CCCC2C)c(OC)c1 (centres unmarked) | -20.2
47 | Cn1c(=O)c(C(=O)NC2CCCCCC2)c(O)c2ccccc21 | 16.8
48 | C/C=C/C(=O)Nc1cccc(C2=NOC3(C2)C[C@@H](C(N)=O)N(C(=O)C(c2ccccc2)c2ccccc2)C3)c1 (some centres unmarked) | -5.73
49 | Cc1cc([N+](=O)[O-])c(C)cc1-c1ccc(/C=N/NC(=O)Cn2nnnc2N)o1 | 21.1
50 | CC(C)C(=O)Nc1ccc(C(=O)NNC(=O)CCc2ccccc2)cc1 | 6.55
51 | CC/C(=N\NC(=O)c1ccccc1O)c1c(O)n(Cc2ccccc2)c(=O)[nH]c1=O | -4.37
52 | Cc1ccc(N2CCN(c3ccc(C)cc3)C2c2ccccn2)cc1 | -8.31
53 | Cc1ccc(C)c(OCc2nnc(NC(=O)c3ccc4c(c3)OCO4)s2)c1 | 0.503
54 | O=[N+]([O-])c1c(-c2cn[nH]c2)n[nH]c1-c1cn[nH]c1 | 7.11
55 | COC(=O)C1=C(C(=O)OC)[C@@H]2N(C)c3ccc(OC)cc3[C@@]23C[C@@H](C(=O)OC)N(C(=O)C2CCC2)C3=N1 | -50
56 | COc1ccc(N(CC(=O)NCCSCc2ccco2)S(=O)(=O)c2ccccc2)cc1 | -9.08
